From US9861707B2, “Treating bladder tumor cells using fibronectin attachment protein as a target” (Purdue Research Foundation, priority 2010, dated 2018)

System: T24 bladder tumor cells

transferrin: clathrin-dependent cargo control
effect of siRNA knock-down of Caveolin-1 on uptake (Caveolin-1 siRNA): failed to inhibit
effect of siRNA knock-down of clathrin on uptake (clathrin siRNA): efficiently inhibited
